# Laboratory results as given in PubChem BioAssay AID488969 (Vanderbilt High Throughput Screening Facility, 2010).
# The full ranking holds about 110,000 compounds; the median of “z-score” is about -0.1, and the highest 2% start at about 2. The list shows a part of the results. Activity calls are given as the source filed them.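 The calls were made as follows: active = z-score in the third read window above 3 or below -3; inactive = the rest.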
# Target: Metabotropic glutamate receptor 8 (Rattus norvegicus) (UniProt P70579)
# Test: mGluR8 Gi/Go-coupled signaling modulation – cell-based, rat, thallium flux, HTS, primary screen (AID 488969)
# Conditions: HEK293 rat mGluR8, GIRK (G protein-gated inwardly rectifying potassium channel) thallium flux, FluoZin2; at 10 µM; stronger effect = higher value; submaximal glutamate (EC20) added with thallium
# UniProt P70579, sequence (P70579 whole entry, looked up): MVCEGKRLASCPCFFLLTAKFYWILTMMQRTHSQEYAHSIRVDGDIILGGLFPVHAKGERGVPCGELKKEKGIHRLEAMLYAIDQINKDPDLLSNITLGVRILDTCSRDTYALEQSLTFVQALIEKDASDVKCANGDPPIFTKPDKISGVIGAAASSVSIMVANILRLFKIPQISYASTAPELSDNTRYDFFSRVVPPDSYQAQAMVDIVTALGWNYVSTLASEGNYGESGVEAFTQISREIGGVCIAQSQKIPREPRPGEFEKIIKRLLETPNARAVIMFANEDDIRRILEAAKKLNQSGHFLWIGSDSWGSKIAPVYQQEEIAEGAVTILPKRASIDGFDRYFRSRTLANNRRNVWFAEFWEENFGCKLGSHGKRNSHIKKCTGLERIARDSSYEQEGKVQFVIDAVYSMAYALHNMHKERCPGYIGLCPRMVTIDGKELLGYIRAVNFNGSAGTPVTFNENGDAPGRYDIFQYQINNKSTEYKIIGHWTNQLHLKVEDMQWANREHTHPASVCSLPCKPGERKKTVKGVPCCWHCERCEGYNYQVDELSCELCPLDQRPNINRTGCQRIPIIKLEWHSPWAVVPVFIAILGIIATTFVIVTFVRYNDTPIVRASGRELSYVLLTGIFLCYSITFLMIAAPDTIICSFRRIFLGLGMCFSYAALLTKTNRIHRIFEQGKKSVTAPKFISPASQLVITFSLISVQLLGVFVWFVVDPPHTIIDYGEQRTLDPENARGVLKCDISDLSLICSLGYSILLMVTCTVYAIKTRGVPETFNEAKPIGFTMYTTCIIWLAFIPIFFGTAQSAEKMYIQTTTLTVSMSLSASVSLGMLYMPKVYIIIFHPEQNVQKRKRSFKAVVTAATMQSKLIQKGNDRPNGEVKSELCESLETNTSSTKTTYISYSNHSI
row,SMILES,z-score
1,CCOc1ccc(NC(=O)CN(C)CC(=O)Nc2cccc(Cl)c2C)cc1OCC,-0.618
2,Cc1ccccc1C(=O)Nc1ccc(-c2nc3ccc(C(=O)c4ccccc4)cc3[nH]2)cc1,-0.182
3,CSc1cccc(NC(=O)CCCOc2ccccc2)c1,1.7
4,CC(=O)c1cccc(NC(=O)Nc2c(C)nn(C)c2C)c1,0.31
5,CCN(CC)S(=O)(=O)c1ccc2c(c1)nc(CCC(=O)Nc1ccc3c(c1)OCO3)n2C,-0.132
6,CCCOc1ccc(N2C(=O)C3ON(c4ccccc4)C(CCC)C3C2=O)cc1 (centres undefined),0.0585
7,Cc1cccc(CSc2ncnc3c2cnn3Cc2ccccc2)c1,-0.46
8,Cc1ccc(OCC(O)CN2CCN(CC(O)COC(C)C)CC2)c(C(C)(C)C)c1 (centres undefined),1.54
9,O=C(N/N=C/c1ccc(O)cc1)c1ccc(NC(=O)c2ccccc2Br)cc1,-0.102
10,O=C(COC(=O)c1ccco1)Nc1ccc(Br)cc1,1.83
11,CCCc1nnc(NC(=O)c2ccc(N3C(=O)C4C5C=CC(C5)C4C3=O)cc2)s1 (centres undefined),-0.362
12,CCOC(=O)C1=C(CSc2nc(-c3ccncc3)ccc2C#N)OC(N)=C(C#N)C1c1ccc(OC)cc1 (centres undefined),-0.202
13,COc1ccc(C)cc1S(=O)(=O)N(CC(=O)Nc1cccc([N+](=O)[O-])c1)c1ccc(C)c(C)c1,-0.702
14,CCCC(=O)Nc1ccc(NC(=O)c2cccc(OC)c2)nc1,2.18
15,O=C(CSc1nc2ccccc2o1)Nc1ccccc1N1CCCCCC1,-0.0665
16,C=CCNC(=O)NC(=O)COC(=O)COc1ccc(Br)cc1F,-1.04
17,O=C(CNCCO)N1CCc2ccccc21,0.128
18,Cc1cc(C)n(-c2ccc(C(=O)OCC(=O)Nc3cc(Cl)ccc3[N+](=O)[O-])cc2)n1,-0.0754
19,CCOC(=O)c1c(C)n(C)c2ccc(O)c(CN(C)C)c12,2
20,CC1CCCCC1NC(=O)COn1nnc2ccc(Cl)cc21 (centres undefined),-0.171
21,O=C(CNC(=O)c1ccc(F)cc1)N/N=C/c1cc(Br)ccc1OCc1ccccc1,0.0734
22,C=CCn1c(SCN2C(=O)c3ccccc3C2=O)nc2ccc(Cl)cc2c1=O,active: 12.6
23,COc1cc(C(=O)Nc2ccc(O)cc2)ccc1OC(C)=O,-0.00966
24,COc1cccc(C(=O)Nn2c(-c3cccs3)nc3ccccc3c2=O)c1OC,-0.339
25,CC(C)(C)NC(=O)CC(c1ccccc1)c1ccccc1O (centres undefined),-0.408
26,COc1cccc(CSc2nnc(C(F)(F)F)n2Cc2ccc(F)cc2)c1,-0.542
27,CCCCN(CCCC)S(=O)(=O)c1ccc(C(=O)Nc2nnc(COC)o2)cc1,1.03
28,Cc1cc2ncn(CCCCOc3ccccc3)c2cc1C,-0.187
29,O=C(NNC(=O)c1ccccc1Br)c1ccc(SCC2CCCO2)c([N+](=O)[O-])c1 (centres undefined),0.0209
